The other results are listed elsewhere or left out. At the low end of the ranking the order means little.

The experiment concerns the target T1, GST-Rok (full length) (UniProt O34857).
T1 sequence: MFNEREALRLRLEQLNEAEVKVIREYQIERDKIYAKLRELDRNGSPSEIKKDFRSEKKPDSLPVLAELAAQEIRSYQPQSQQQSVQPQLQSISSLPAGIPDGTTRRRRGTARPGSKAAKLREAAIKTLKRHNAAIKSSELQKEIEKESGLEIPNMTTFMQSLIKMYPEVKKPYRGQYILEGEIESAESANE
The experiment can be described thus: protein binding microarray.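 Further: rank score from −0.5 (least bound) to 0.5 (best bound).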 The settings on record: Rok is a gene silencer of Bacillus subtilis; high values mean tight binding; most listed sequences are background and not binding sites; double strand, one strand shown.
CTCCTCGC gave a binding signal of -0.255 E-score.

In the case of ACGCTTTA, the binding signal came out at 0.202 E-score.

Turning to ATAGGGAG, the binding signal was -0.172 E-score. The sequence CTTCAACC displayed a binding signal of -0.116 E-score.

On to TCCGACCA, for which the binding signal was -0.0461 E-score. The figure for CCTCGGTA is 0.0273 E-score; for AGAGTTAC it is 0.152 E-score. Under ACTAATGA stands 0.13 E-score. Under CAATGCGG stands -0.0502 E-score; under GCCCATAA, -0.0817 E-score; under CCACAGGG, -0.383 E-score.

For the sequence CAAAAAGG, the binding signal is -0.0977 E-score. Under AAAGGAAC stands -0.216 E-score. Regarding AATGATAG, the binding signal was 0.333 E-score. As to ACCGCTAT, the binding signal worked out at 0.0622 E-score. The figure for ACTCAGAT is 0.2 E-score. The figure for ACGTTCGG is -0.0329 E-score; for ACGGTACG it is -0.0886 E-score; for CGCCTGAA it is -0.276 E-score. Under ATAAGCCG stands -0.00629 E-score; under AACCGTAT, 0.179 E-score.

In turn, TAGTAGGA displayed a binding signal of 0.209 E-score. Under GCGAAGAA stands 0.128 E-score; under CAATAGGG, -0.115 E-score.

In the case of AGCGTATA, the binding signal amounted to 0.189 E-score. AATGGTAC had a binding signal of 0.314 E-score. The figure for GGAAACTA is 0.362 E-score. Sequence CGAGCCCC showed a binding signal of -0.303 E-score. Sequence AGTTATCG yielded a binding signal of 0.248 E-score. The sequence CGCACCGC came in with a binding signal of -0.388 E-score. The figure for GTGTTAAC is 0.0282 E-score; for AAATGTGA it is 0.21 E-score; for TATTGGAA it is 0.0716 E-score. For the sequence AAGAACCG, the binding signal was -0.133 E-score. GCTTTGAC had a binding signal of 0.0394 E-score. The figure for AGGCTTTG is -0.21 E-score. The figure for CACCGAGA is -0.0238 E-score; for GGCGTACA it is -0.0118 E-score; for CCCAAGCA it is -0.265 E-score. Under AGAACCCA stands 0.00331 E-score; under ACCGGCTG, -0.211 E-score. GCTCCGTA displayed a binding signal of -0.00531 E-score. Under TAACCAGA stands -0.105 E-score. The figure for CTCCCGAC is -0.0195 E-score; for CATGCTAG it is 0.192 E-score.

ACCGTCGT returned a binding signal of 0.0566 E-score. CACAGCTA gave a binding signal of 0.135 E-score.

Sequence ATTAGAGG gave a binding signal of -0.215 E-score. The figure for AACCACCA is -0.169 E-score; for ATCCTCTC it is -0.226 E-score; for GCCAATGA it is -0.116 E-score. In turn, AACCATAT registered a binding signal of 0.192 E-score. In turn, ACACGGCT returned a binding signal of -0.125 E-score. As to CTGCGACC, the binding signal was -0.12 E-score. As to CGCCGGTA, the binding signal is -0.147 E-score.

For the sequence AGGTCGTA, the binding signal was determined as 0.0742 E-score.

CCTGGGTC yielded a binding signal of -0.361 E-score. The figure for CAGGCATG is -0.176 E-score; for AGTTTCGA it is 0.262 E-score. CCGTACTA: the binding signal is 0.243 E-score. As to ATCATCCC, the binding signal was -0.203 E-score.

In turn, CCAGATCA returned a binding signal of -0.0971 E-score. Regarding AAAGAGGG, the binding signal was -0.308 E-score. In the case of CCGAAACC, the binding signal worked out at 0.00426 E-score. The figure for ATGACTTC is 0.0698 E-score. Consider ACTGTTCA, for which the binding signal was 0.0465 E-score. ATGCGGTG gave a binding signal of -0.0511 E-score.

AAACTGAG came in with a binding signal of -0.11 E-score. The figure for ACCGCACA is -0.0784 E-score.

Sequence CGAAACAA came in with a binding signal of 0.09 E-score. The figure for AACGTGCG is -0.127 E-score; for CATTAGAA it is 0.108 E-score. The figure for CGGTAACG is -0.0352 E-score; for TGACGGAA it is -0.0186 E-score. For TAACCTTA, the binding signal was 0.0661 E-score. Under GGGGGTTA stands -0.341 E-score; under ATCAGTTA, 0.208 E-score. As to ACGATGCA, the binding signal is 0.0564 E-score. AAGTATGA had a binding signal of 0.211 E-score. CCCATGAC came in with a binding signal of -0.0591 E-score. The figure for AGCGCTGA is -0.254 E-score.

Consider ATCGGGCA, for which the binding signal is -0.0463 E-score.

Sequence GAATTCCC gave a binding signal of -0.0489 E-score. Under GGTGGGTA stands 0.112 E-score; under ACAATAAC, 0.214 E-score. In turn, GGTGACAC gave a binding signal of 0.0136 E-score. The figure for AGACCTGC is -0.165 E-score; for TCTCCTAA it is -0.0327 E-score; for GACCACAA it is -0.0748 E-score. The figure for CTCATGGC is -0.151 E-score. Turning to AATCGGTC, the binding signal is -0.0689 E-score. The figure for AAGCATAC is 0.08 E-score; for ACCACCCA it is -0.000827 E-score; for ACGTAGAG it is -0.0516 E-score. Under AGTAGTTC stands 0.413 E-score. The figure for ACTTGGCC is -0.163 E-score; for GTTTAATA it is 0.24 E-score; for AGCGTGGA it is -0.00696 E-score.

Regarding ACTCATGG, the binding signal is 0.0938 E-score. As to ACGCGGGG, the binding signal was -0.207 E-score. In turn, CCTGATGC had a binding signal of -0.163 E-score.

The sequence GCCCAAAA registered a binding signal of -0.0303 E-score. For the sequence AACAAGTG, the binding signal amounted to 0.133 E-score. Sequence AAAGTATC yielded a binding signal of 0.193 E-score.

TCCGTGAA displayed a binding signal of -0.0712 E-score. Under CACAACGC stands 0.0738 E-score; under CAGAGTCA, -0.0871 E-score; under AGTGTGGG, -0.0592 E-score. The figure for AGGCCTTA is -0.0542 E-score. Under AGTCATAA stands 0.0334 E-score; under GTAGCAAC, 0.263 E-score; under ATTCCGGA, 0.092 E-score.

The sequence CAGGCAAG came in with a binding signal of -0.283 E-score. The figure for CATAGGGC is -0.0263 E-score; for ATATGGTA it is 0.318 E-score. The figure for CAAGCGAG is -0.275 E-score; for TCACCACA it is 0.0771 E-score; for CGACTTCC it is 0.0419 E-score.

Sequence AGGATCAA came in with a binding signal of -0.132 E-score. The figure for AATAAACG is 0.0748 E-score; for AAGATCAG it is 0.176 E-score.

CTGAGAAG gave a binding signal of -0.14 E-score. The figure for CGCCGAGA is -0.216 E-score.

Sequence ACAGGTAA showed a binding signal of 0.131 E-score.

For CAATAGCC, the binding signal was -0.0177 E-score. The sequence GGAATAGA displayed a binding signal of 0.0819 E-score. Under AGAAGAGA stands -0.0613 E-score; under CACACATG, -0.193 E-score.

In turn, CAATGATA registered a binding signal of 0.22 E-score. Regarding AGTAGGCA, the binding signal was found to be 0.114 E-score.

Regarding AAACCCAC, the binding signal worked out at 0.00229 E-score.

For the sequence AACACTTA, the binding signal was 0.112 E-score.

Regarding GCCCGCAC, the binding signal was -0.243 E-score.

GAATTCAC showed a binding signal of 0.025 E-score. Regarding AACCCTCC, the binding signal was -0.245 E-score. As to TACGCTGA, the binding signal is 0.0217 E-score. The figure for AGAAAATC is 0.215 E-score; for GCGTTTCC it is -0.16 E-score; for CGAAGATC it is -0.127 E-score. Under GTGTTCGA stands 0.0821 E-score; under CAGGCACC, -0.264 E-score. The sequence ACGGAGCC returned a binding signal of -0.0978 E-score.

CAACACAA returned a binding signal of 0.146 E-score. In turn, GACGCGTC registered a binding signal of 0.0647 E-score. The sequence ACTCGGTA yielded a binding signal of 0.363 E-score. The figure for AAGAAGCA is 0.0687 E-score; for ATACGAAC it is 0.0226 E-score; for CCCCCCCC it is -0.417 E-score. Under GCCGGCCC stands -0.369 E-score. Under ATGTGAAC stands 0.125 E-score. ACTTGCCG had a binding signal of -0.0504 E-score. The figure for AAGCCTAA is -0.217 E-score; for ATAGGCCC it is -0.328 E-score.

The sequence ATCCCAGC displayed a binding signal of -0.251 E-score. In the case of CTAGGCCC, the binding signal is -0.413 E-score. The figure for GACTCCGC is -0.184 E-score. Under ACCACGCG stands 0.0125 E-score; under GTGATTTA, 0.06 E-score; under ATCAACAA, 0.0139 E-score. On to CGTTTTAA, for which the binding signal is 0.191 E-score.

As for AAACAGTC, the binding signal came to 0.0387 E-score. Under AACCAACA stands 0.21 E-score; under CGACCTAA, 0.0856 E-score; under CCACGAAC, -0.124 E-score. ACGCAGTC: the binding signal is -0.0557 E-score. Under ATGCTAGC stands 0.313 E-score; under GTCGCACA, 0.0178 E-score; under TGGTTACA, 0.0714 E-score.

With GGTCAACC, the binding signal is 0.00508 E-score. Under CTTTTAAA stands -0.0285 E-score. Under CCGATTGA stands 0.0484 E-score; under CGTTCCAG, 0.0658 E-score.

Source of the values: paper PMC6212790.
